Data taken from paper PMC6919601, “Identification of Plasmodium dipeptidyl aminopeptidase allosteric inhibitors by high throughput screening” (PLoS ONE, 2019).
The campaign covered roughly 110,000 compounds. About 230 (0.21%) showed an effect of 50% or more. The list shows a part of the results.

biological target: DPAP1 (Plasmodium falciparum, UniProt Q8IIJ9); test: primary screen, percent inhibition; read by cleavage of a fluorogenic dipeptide substrate; higher = more effect of the substance; set-up: species or system P. falciparum D10 trophozoite lysates; single well
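Note: 30 min substrate incubation versus DMSO and 10 µM JCP410 controls.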

Sequence of DPAP1 (Q8IIJ9 whole entry, looked up): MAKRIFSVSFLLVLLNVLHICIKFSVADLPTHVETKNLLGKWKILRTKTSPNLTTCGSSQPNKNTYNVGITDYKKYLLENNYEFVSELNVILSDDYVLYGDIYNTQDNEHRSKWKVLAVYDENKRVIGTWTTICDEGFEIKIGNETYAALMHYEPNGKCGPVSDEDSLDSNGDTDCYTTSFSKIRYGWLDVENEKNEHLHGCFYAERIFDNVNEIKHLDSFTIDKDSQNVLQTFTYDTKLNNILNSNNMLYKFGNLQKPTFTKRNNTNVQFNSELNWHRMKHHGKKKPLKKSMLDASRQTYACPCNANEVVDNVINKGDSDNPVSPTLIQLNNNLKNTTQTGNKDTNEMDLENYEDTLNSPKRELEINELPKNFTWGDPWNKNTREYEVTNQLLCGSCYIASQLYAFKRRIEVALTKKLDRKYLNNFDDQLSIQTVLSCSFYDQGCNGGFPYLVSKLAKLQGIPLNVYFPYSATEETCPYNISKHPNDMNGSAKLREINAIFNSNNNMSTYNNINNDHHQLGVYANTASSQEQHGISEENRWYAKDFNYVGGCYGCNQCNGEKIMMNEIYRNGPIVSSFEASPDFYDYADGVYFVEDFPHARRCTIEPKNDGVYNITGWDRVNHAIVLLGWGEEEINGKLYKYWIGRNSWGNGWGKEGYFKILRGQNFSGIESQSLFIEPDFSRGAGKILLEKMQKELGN

| Compound | % Inhibition @ 10 uM |
| --- | --- |
| COc1ccccc1-c1coc2c(CN(C)C3CCCCC3)c(O)ccc2c1=O | 23.4% |
| OCC1CCCN1CC1CCCCC1 (centres unmarked) | -1.64% |
| COc1ccc(CNS(=O)(=O)c2ccc(Cl)c(Cl)c2OC)cc1 | 6.35% |
| O=[N+]([O-])c1ccc(N2CCN(Cc3ccccc3)CC2)c([N+](=O)[O-])c1 | -3.03% |
| COc1ccc(-c2noc(C)n2)cc1 | -1.71% |
| Cc1ccc(C(=O)O/N=C(\N)c2ccncc2)cc1Cl | -1.25% |
| COc1ccc(/C=C/C(=O)N(Cc2ccccc2F)C2CCS(=O)(=O)C2)cc1 (centres unmarked) | 5.17% |
| Cc1ccc(CN(CC(=O)Nc2ccc(Cl)cc2)S(=O)(=O)c2ccccc2)cc1 | 6.18% |
| O=CNC1CCCc2c1[nH]c1ccc(Cl)cc21 (centres unmarked) | 2.13% |
| CCS(=O)(=O)c1nc2ccccc2n1CCOc1ccc(Cl)cc1 | 0.0539% |
| CCCC1=Nc2nc(C)nn2C(c2cccnc2)/C1=C(/O)OCC (centres unmarked) | -1.85% |
| Cc1ccc(-c2noc(-c3nnn(-c4cccc(C)c4C)c3N)n2)cc1 | 5.22% |
| CCOc1ccc(Cc2nnc(SC(C)C(=O)O)n2C)cc1 (centres unmarked) | 3.27% |
| Cc1ccccc1OCC(=O)N1CCCc2ccccc21 | 2.64% |
| CCOC(=O)c1c(-c2ccc(Cl)cc2)nn2c1NCN(Cc1ccco1)C2 | -2.88% |
| COC(=O)[C@@H](CC(C)C)NC(=O)[C@@H]1CCCN1C#N | 3.66% |
| CC(CCc1ccccc1)NC(=O)CCc1cn(C)c2ccccc12 (centres unmarked) | -3.15% |
| Cc1c(Br)c(=O)oc2c(Br)c(O)ccc12 | -5.03% |
| CCc1c(C)sc(NC(=O)C2CCC2)c1C#N | -2.53% |
| CN1CCC(N(C)Cc2cccc(Cl)c2)CC1 | -2.81% |
| CCC1CCCCN1CCCNC(=O)C1CCCN(c2ncnc3c2nc2n3CCCCC2)C1 (centres unmarked) | -3.22% |
| CCc1c(C)sc(NC(=O)c2cccc(Br)c2)c1C#N | 16.6% |

| Compound | % Inhibition @ 10 uM |
| --- | --- |
| Cc1cccc(C(=O)Nc2ccc(S(=O)(=O)N3CCC(C)CC3)cc2)c1 | 1.64% |
| NC(=O)c1c(NC(=O)c2cc(Cl)ccc2Cl)sc2c1CCC2 | -6.2% |
| OC1CCCN(Cc2cccc(F)c2)C1 (centres unmarked) | -3.56% |
| CCOC(=O)c1[nH]c2ccc(OC)cc2c1NC(=S)N1CCOCC1 | -6.08% |
| Cc1ccc(Oc2ccc(NC(=O)CCC(=O)O)cc2)cc1C | -0.473% |
| CN(C)CCNc1nc(-c2ccc(Cl)cc2)nc2ccccc12 | -0.69% |
| COC(=O)C(C)NC(=O)COc1ccc([N+](=O)[O-])cc1 (centres unmarked) | -5.38% |
| Cc1ccccc1C1=NC(C(F)(F)F)(C(F)(F)F)N=C(N2CCOCC2)O1 | 1.51% |
| Fc1cccc(CN2CCN(Cc3ccco3)CC2)c1 | -5.85% |
| Cc1ccc(NC(=O)c2c(-c3ccccc3)noc2C)cc1 | -1.89% |
| Cn1c(=O)c(=O)[nH]c2c(=O)oc3ccc(S(=O)(=O)NCCc4ccc(Cl)cc4)cc3c21 | 3.07% |
| CCOC(=O)c1cc(-c2ccc(F)cc2)n(CC(=O)NCCN(C)C)c1C | -5.47% |
| Cc1cc(NC(=O)C2c3ccccc3C(=O)N(CC(C)C)C2c2cccs2)no1 (centres unmarked) | 1.69% |
| COc1ccc(Br)c(-c2nnc(CS(=O)(=O)c3ccccc3)o2)c1 | 6.37% |
| COc1cc(C(=O)Nc2ccc(F)cc2C)ccc1OC(F)F | 0.956% |
| CC(C)CN1C(=O)C(NC(=O)C2CC2)(C(F)(F)F)C2=C1CC(C)(C)CC2=O (centres unmarked) | -1.59% |
| CC(=O)NC(C)c1ccc(Cl)c(Cl)c1 (centres unmarked) | 0.219% |
| Cc1noc(/C=C/N(C)C)c1S(=O)(=O)N1CCC(C(=O)O)CC1 | -0.458% |
| Cc1ccc(-c2cc(C(=O)O)c3cc(Br)ccc3n2)cc1 | 2.95% |
| Cc1cccc2sc(NC(=O)C(C)Oc3ccccc3)nc12 (centres unmarked) | -2.65% |
| Cc1ccc(OCC(=O)NCc2ccc(F)cc2)cc1C | 8.08% |
| Clc1ccccc1CN1CCN(CC2CC=CCC2)CC1 (centres unmarked) | 1.81% |

| Compound | % Inhibition @ 10 uM |
| --- | --- |
| CN(Cc1ccco1)S(=O)(=O)c1nnc(NC(=O)C23C[C@H]4C[C@@H](C2)C[C@@H](C3)C4)s1 | 6.06% |
| COc1ccc(OC)c(CCNC(=O)CCc2cn(C)c3ccccc23)c1 | -0.256% |
| C=CCN1C(=O)N/C(=C\c2cccc(OC)c2O)C1=O | 12.1% |
| Cc1cc(C)c(-c2[nH]nc3c2C(c2ccccc2F)N(CCCO)C3=O)c(O)c1 (centres unmarked) | 0.00706% |
| CC[C@H](NC(=O)[C@H](CC1CCCCC1)OC(=O)N1CCOCC1)C(=O)c1nc2ncccc2o1 | -0.207% |
| N#C/N=C(/SCc1ccccc1)SCN1C(=O)CCC1=O | 2.22% |
| COc1ccc(N2CCN(Cc3ccccc3Cl)CC2)cc1 | 6.18% |
| COc1cc(-c2noc(CCCC(=O)NC(C)(C)C)n2)cc(OC)c1OC | 3.81% |
| COC(=O)C1=CNC=C(C(=O)OC)C1c1cc(OC)c(Br)cc1OC | -0.357% |
| COc1ccc(/C=C/C(=O)NCC(=O)N2CCC(N(C)CCN3CCOCC3)CC2)cc1OC | -2.85% |
| C[C@@]12Cc3nc4ccccc4c(N)c3[C@]1(C)Cc1nc3ccccc3c(N)c12 | -2.98% |
| COc1ccc(OC)c(C(O)c2coc3ccc(O)c(CN(C)C)c23)c1 (centres unmarked) | 5.48% |
| COc1ccc(Cc2nnc(C(=O)NCCCOC(C)C)o2)cc1OC | -8.99% |
| Nc1nonc1C(=O)NCCNCc1ccccc1C(F)(F)F | 0.00706% |
| CC(C)(C)c1csc(NC(=O)c2cccnc2Cl)n1 | -6.25% |
| Cc1ccc(C(CC(=O)N2CCCCC2)N2Cc3ccccc3C2=O)cc1 (centres unmarked) | -1.65% |
| Cc1ccc(NC2(c3nnnn3C(/C=C\c3ccc(Cl)cc3Cl)C(C)(C)C)CCCCC2)cc1 (centres unmarked) | -6.82% |
| COc1ccc(CN2CCNCC2)c(OC)c1 | 2.65% |
| CCCN1C(=O)C(NC(=O)c2cccc(C)c2)(C(F)(F)F)N=C1c1ccccc1 (centres unmarked) | -1.51% |
| Cn1c(SCc2ccccc2Cl)nc(=O)c2c1NC(=O)CC2c1cc(F)cc(F)c1 (centres unmarked) | 5.39% |
| O=C(O)c1ccc(N2N=C(c3ccccc3)CC2c2ccccc2)cc1 (centres unmarked) | -0.446% |
